The campaign covered roughly 150,000 compounds. About 540 (0.36%) showed an effect of 50% or more. This is one part of the list.

The test system of the assay is Plasmodium falciparum. The experiment in a line: Primary screen in NF54 nanoGlo assay, in single point, at 2uM, 72h; a lower Z score goes with more inhibition. It is filed as functional, Erythrocyte. As to conditions: timepoint 72 hour.
As for `COc1ccc(NS(=O)(=O)c2cccc(C(=O)NCc3ccco3)c2)cc1Br`, the % Inhibition (usually the drop in the measured response relative to a control, in per cent) is recorded as -12% and the Z score is given as 1.55.

For `COc1ccc(CNC(=O)c2cc3n(n2)CCCN(Cc2ccc(F)cc2)C3=O)cc1`, the “% Inhibition” value was -9% and the Z score is recorded as 1.13.

Take `O=C(CCOc1cccc(Cl)c1Cl)NCc1ccc2c(c1)OCO2`: the “% Inhibition” value is given as -13% and the Z score turned out to be 1.76.

For `CCn1nccc1C(=O)NCCN1Cc2cc(F)ccc2OCC1=O`, the “% Inhibition” value is on record as -12% and the Z score was 2.

As for `O=S(=O)(c1ccc(Oc2ccc3ccccc3c2)nc1)N1CCOCC1`, the “% Inhibition” value is -20% and the Z score worked out at 1.65.

With `CC(C)C[C@H](C)N(c1ccc2[nH]ccc2c1)S(=O)(=O)c1ccc(S(=O)(=O)NC2CC2)cc1`, the “% Inhibition” value was -9% and the Z score was 0.77.

In the case of `CN(CC1(O)CCOCC1)C(=O)NCC1(Cc2ccccc2)CCC1`, the “% Inhibition” value is -12% and the Z score stood at 1.57.

For `COc1cc([C@@H]2NCCC3(O)CCCCC23)cc(OC)c1OC` (some centres not stated), the “% Inhibition” value worked out at 8% and the Z score was -0.98.

As for `CCCN(Cc1c(-c2ccccc2)nn(C)c1Oc1ccc(F)cc1)C[C@H](O)COc1ccccc1`, the “% Inhibition” value is recorded as 1% and the Z score is -0.07.

With `CN(Cc1c(Cl)cncc1Cl)C[C@H]1COCCO1`, the “% Inhibition” value is -20% and the Z score is on record as 2.64.

In the case of `CC(C)(C)C(=O)NCc1cccnc1-c1ccccc1`, the “% Inhibition” value is -9% and the Z score was 1.06.

Turning to `Cc1cnc(N2CCC(O)CC2)nc1N(C)C`, the “% Inhibition” value is given as -12% and the Z score came out at 2.32.

With `Cc1nc(N(C)C)cc(N2CCN(C(=O)C3CCCC3)CC2)n1`, the “% Inhibition” value is -17% and the Z score came to 1.88.

In the case of `FC(F)(F)c1cccc(N2CCN(c3nc(-c4ccccc4)no3)CC2)c1`, the “% Inhibition” value was -16% and the Z score was found to be 1.72.

In the case of `Cc1ccc(CN2CCN(C[C@@H](O)Cn3c4ccccc4n4c(=O)cc(C)c(C#N)c34)CC2)c(C)c1`, the “% Inhibition” value came to 86% and the Z score is given as -13.14.

In the case of `Cc1ccc(C(=O)Nc2ccc(-n3cc(Br)cn3)nc2)c(=O)n1C`, the “% Inhibition” value is recorded as -4% and the Z score stood at 0.53.

In the case of `O=C(Nc1cccnc1-n1cccn1)c1cc(-c2ccccc2)c(N2CCOCC2)s1`, the “% Inhibition” value is -5% and the Z score is reported as 0.61.

With `O=C(c1ccc2snnc2c1)N1CCN(c2ccccc2)CC1`, the “% Inhibition” value is -8% and the Z score is listed as 1.38.

With `CC1(C)C(O)CC1Nc1ccc(F)cc1C#N` (configuration not stated), the “% Inhibition” value is -13% and the Z score is 1.33.

Consider `CC(C)(C)OC(=O)N1CCN(C[C@H]2CN(c3ccc(F)cc3)C(=O)O2)CC1`, for which the “% Inhibition” value is 37% and the Z score was -4.77.

Take `COc1cc(CN(C(=O)c2ccc(-n3cccn3)cc2)[C@H]2CCCCNC2=O)ccc1OCCc1ccccn1`: the “% Inhibition” value amounted to 11% and the Z score is -1.41.

For `COc1ccc2c(c1)CC[C@H](NCCCn1ccccc1=O)C2`, the “% Inhibition” value is reported as -7% and the Z score amounted to 1.28.

In the case of `N#CC1(NC(=O)Cc2cc(Cl)ccc2Br)CC1`, the “% Inhibition” value was -4% and the Z score is given as 0.33.

Take `O=C(Nc1cnc(Oc2ccccc2)nc1)Nc1ccc(F)cc1F`: the “% Inhibition” value is given as -1% and the Z score amounted to 0.21.

For the compound `O=C(c1cc(C2CC2)n[nH]1)N1CCN(c2ccc(F)cc2)CC1`, the “% Inhibition” value is recorded as -11% and the Z score was 1.36.

Turning to `O=C1c2cccn2CCC1C(O)c1ccncc1` (configuration not stated), the “% Inhibition” value is 2% and the Z score is -0.24.

As to `CCN(CC)c1ccc(C(=O)N2CCN(c3ccccc3OC)CC2)cc1`, the “% Inhibition” value is reported as -7% and the Z score was 0.83.

With `Nc1cc(CCc2c(F)cccc2Cl)n[nH]1`, the “% Inhibition” value is -14% and the Z score is 1.93.

For the compound `O=C(c1nccc2ccccc12)N1CCC[C@H]1c1ccc[nH]1`, the “% Inhibition” value is given as -7% and the Z score was determined as 1.09.

Consider `CC(C)(C)OC(=O)Nc1ccccc1NCc1ccsc1`, for which the “% Inhibition” value is recorded as -4% and the Z score is 0.36.

Take `COC(=O)C1C2CCCC2CN1Cc1ncnn1C` (configuration not stated): the “% Inhibition” value worked out at 0% and the Z score was -0.07.

As to `CCC(O)CN1CCCC(CNC(=O)C(C)(C)C)C1` (configuration not stated), the “% Inhibition” value is -13% and the Z score is reported as 1.83.

As to `COc1ccc(CN2C(=O)N[C@@H](CC(=O)Nc3nc(C)cs3)C2=O)cc1OC`, the “% Inhibition” value is recorded as -14% and the Z score amounted to 1.79.

As for `O=C(CCCn1cncn1)N1CCc2cc3ccc2[C@@H]1c1cccc(c1)OCCCn1cc(nn1)CO3`, the “% Inhibition” value is -13% and the Z score stood at 1.65.

`O=C(O)C1(CCCc2ccccc2)CCN(c2ncnc3[nH]ccc23)CC1`: the “% Inhibition” value is on record as -2% and the Z score worked out at 0.33.

On to `CN(C)c1ccc(/C=C(/c2ccccc2)c2nc3ccccc3[nH]2)cc1`, for which the “% Inhibition” value is reported as -1% and the Z score is 0.13.

For `Cc1cn(-c2c(F)cccc2F)nc1C(=O)NCc1ccc2c(c1)OCO2`, the “% Inhibition” value was -10% and the Z score is 1.3.

Take `CCCCCOCC(=O)N[C@@]1(C(N)=O)CCOC1`: the “% Inhibition” value was determined as 17% and the Z score is on record as -2.1.

Turning to `O[C@H]1CN(Cc2ccco2)CCN(c2nnnn2-c2ccccc2)C1`, the “% Inhibition” value is listed as 2% and the Z score is given as -0.31.

For `O=S1(=O)CC(O)C(N2CCN(C(c3ccccc3)c3ccccc3)CC2)C1` (configuration not stated), the “% Inhibition” value is reported as -4% and the Z score is recorded as 0.53.

On to `CC1CCN(C(=O)CN2C(=O)COc3ccc(S(=O)(=O)N4CCC(C)CC4)cc32)CC1`, for which the “% Inhibition” value is listed as -12% and the Z score came out at 2.18.
